According to patent US20220177547A1 (KYUNGPOOK NATIONAL UNIVERSITY INDUSTRY ACADEMIC COOPERATION …, published 2022):

Biological target: T1, TRAIL (TNF-related apoptosis inducing ligand) (human, UniProt P50591 114-281, limits assumed)
T1 construct: also called TRAIL alone; native TRAIL
Experiment: SPR, Dr5 coupled to gold sensor chip, TRAIL flowed 400 nM to 25 nM
Protocol: The TRAIL receptor protein Dr5 was coupled to a surface of a gold sensor chip by flowing it on the surface of the gold sensor chip for surface resonance plasma (SPR) activated with NHS-EDC, and blocked with ethanolamine. The binding kinetics were analyzed by flowing TRAIL-ATNC dissolved in TBS from 8.33 nM to 0.52 nM by half, and TRAIL from 400 nM to 25 nM by half on the TRAIL receptor-coupled gold sensor chip, respectively. The right channel, which was not coated with Dr5, was used as a control (or reference).

Kd: 58.3 nM
koff: 0.0015 s⁻¹
kon: 25700 M⁻¹ s⁻¹
B1: TRAIL receptor protein Dr5 (receptor)
chain: not shown
notes: Purified protein amine-coupled (NHS-EDC) to the SPR chip; The construct is not described
